PubChem BioAssay AID1345082 (National Center for Advancing Translational Sciences (NCATS), 2018)
Among all 94,000 compounds or so, about 4,000 (4.3%) were called active. This list was built around the results that the source calls inconclusive (neither active nor inactive); the mix of calls is not that of the screen. The call rests on the fitted dose curve; in most records, active means well fitted inhibition curve with a large enough effect; inconclusive means small, poorly fitted or top-dose-only effect; inactive means no such curve, though single readings can be large or run the other way. Where the call is inconclusive, the potency comes from a doubtful curve fit.

Experiment: Cytotoxic Profiling in NIH 3T3 Cell Line of Diverse Libraries Using Quantitative High-Throughput Screening; further: nearly all actives have a fitted effect of over 55% in size
Conditions: NIH 3T3 viability, CellTiter-Glo ATP luminescence, 48-72 h; series mostly up to 96.7 µM; activity change, negative = cytotoxicity: at the top concentration
Text: Cell-based phenotypic screening is a commonly used approach to discover biological pathways, novel drug targets, chemical probes and high-quality hit-to-lead molecules. Many hits identified from high-throughput screening campaign are ruled out through a series of follow-up potency, selectivity/specificity, and cytotoxicity assays. Prioritization of molecules with little or no cytotoxicity for a more in-depth downstream evaluation influence the future direction of projects, so cytotoxicity profiling of the screening libraries at early stage is essential for increasing the likelihood of candidate success. In this study, we analyzed results from a cell-based cytotoxicity screening campaign, comprising nearly 10,000 compounds in NCATS annotated libraries, and over 100,000 compounds in a diversity library, evaluated in four normal cell lines (HEK 293, NIH 3T3, CRL-7250 and HaCat) and a cancer cell line (KB 3-1, a HeLa subline) with overall screening outcomes, hit rates, pan-activity and selectivity. For the annotated library, we also examined the primary targets and mechanistic pathways regularly associated with cell death. To our knowledge, this is the first study to use high-throughput screening to profile large libraries for cytotoxicity assessment in both normal and cancer cell lines. In summary, the results generated here constitutes a valuable resource for the scientific community and provides insight on identifying cytotoxic compounds with particular mechanisms of action, and prioritizing compounds with suitable cytotoxicity profile for further evaluation.
NIH 3T3 cells were seeded into white 1536-well plates using a Multidrop Combi peristaltic dispenser (ThermoFisher, Waltham, MA) at a density of 400 cells/well in 5 uL of medium respectively. A pintool (Kalypsys) was used to transfer 23 nL of compound solution to the 1536-well assay plates. After 48 or 72 hr incubation at 37 degree Celsius, 5% CO2 and 95% humidity, 2.5 uL of CellTiter-Glo (Promega) was dispensed into each well using a dispenser (Aspect Automation, St. Paul, MN) with solenoid valves (Lee Valves, Westbrook CT). Plates were left at room temperature for 10 min before imaging the ATP-coupled luminescence using a ViewLux microplate imager (PerkinElmer, Waltham, MA).
On the % scale 0 is the no-effect control and ±100 the full control effect; potency means the concentration at half of the fitted maximal effect; tags describe the fitted curve by direction and shape.

Structure (SMILES)	Potency	activity change, negative = cytotoxicity	outcome
Cc1nc(-c2ccccc2Br)cc([C@H]2CN3CC[C@H]2C[C@@H]3CNC(=O)c2ccco2)n1	inconclusive: 56.2 µM [inhibitor, partial curve, poor fit]	–	–
CCC(CC)c1cc([C@H]2CN3CC[C@H]2C[C@@H]3CNC(=O)c2ccc(C)cc2)nc(-c2ccncc2)n1	inconclusive: 50.1 µM [inhibitor, partial curve, poor fit]	–	–
CC(C)NC(=O)NC[C@H]1C[C@@H]2CCN1C[C@@H]2c1cc(C2CCCC2)nn1C	inconclusive: 112 µM [inhibitor, partial curve, poor fit]	–	–
Cc1ccccc1S(=O)(=O)N1[C@H]2CC[C@@H]1c1cnc(-c3ccc(F)cc3)nc1C2	inconclusive: 44.7 µM [inhibitor, partial curve, poor fit]	–	–
CCC(CC)c1cc([C@H]2CN3CC[C@H]2C[C@@H]3CNC(=O)CSCC(=O)O)nc(-c2ccncc2)n1	inconclusive: 89.1 µM [inhibitor, single point]	–	–
COc1cc2c(cc1OCc1ccncc1)NC(=O)C21CCN(C(C)=O)CC1	inconclusive: 44.7 µM [inhibitor, partial curve, poor fit]	–	–
CC(C)NC(=O)OC[C@H]1C[C@@H]2CCN1C[C@@H]2c1cc(C2CCCC2)nc(-c2ccncc2)n1	active: 28.2 µM	–	–
COc1cc2c(cc1OCC1CC1)NC(=O)C21CCN(c2ncc(F)cn2)CC1	inconclusive: 100 µM [inhibitor, partial curve]	–	–
Cc1ccc(C(=O)N2CCC3(CC2)c2nccn2-c2ccccc2CN3C)c(C)c1	–	inactive: -6.25%	–
Cc1ccc(-c2ccccc2CN2CCN(C(=O)Cc3ccccn3)CC2)cc1Cl	active: 25.1 µM	–	–
Cc1nc(-c2cccs2)cc([C@H]2CN3CC[C@H]2C[C@@H]3CNC(=O)c2ccc3c(c2)OCO3)n1	active: 39.8 µM	–	–
COc1ccccc1N1CCN(C(=O)[C@H]2CN3CCC2C[C@@H]3Cn2cc(CO)nn2)CC1 (stereo partly specified)	–	–	inactive
CC(=O)Nc1ccc(S(=O)(=O)NC[C@H]2C[C@@H]3CCN2C[C@@H]3c2cc(-c3ccc(N(C)C)cc3)nc(C)n2)cc1	active: 25.1 µM	–	–
Cn1nc(C2CCCCC2)cc1[C@H]1CN2CC[C@H]1C[C@@H]2CNS(C)(=O)=O	–	inactive: -4.14% [at 174 µM]	–
Cc1nc(-c2ccccc2)cc([C@H]2CN3CC[C@H]2C[C@@H]3CNC2CCN(C)CC2)n1	active: 56.2 µM	–	–
CN(Cc1ccccc1)C[C@H]1CN2CC[C@H]1C[C@@H]2CNC(=O)c1ccc(C(F)(F)F)cc1	inconclusive: 56.2 µM [inhibitor, partial curve, poor fit]	–	–
